Experimental data taken from PubChem BioAssay AID504332 (National Center for Advancing Translational Sciences (NCATS), 2011).
In all, about 350,000 compounds went through this assay and about 31,000 (8.9%) were called active. Inconclusive results, whose numbers are uncertain, are shown with a selection of clear calls. Calls come from the whole dose curve; as a rule, active = well fitted inhibition curve with a large enough effect; inconclusive = small, poorly fitted or top-dose-only effect; inactive = no such curve, though single readings can be large or run the other way. Where the call is inconclusive, the potency comes from a doubtful curve fit.

Target: Histone-lysine N-methyltransferase EHMT2 (Homo sapiens) (UniProt Q96KQ7)
Chain of UniProt Q96KQ7 (Q96KQ7 whole entry, looked up): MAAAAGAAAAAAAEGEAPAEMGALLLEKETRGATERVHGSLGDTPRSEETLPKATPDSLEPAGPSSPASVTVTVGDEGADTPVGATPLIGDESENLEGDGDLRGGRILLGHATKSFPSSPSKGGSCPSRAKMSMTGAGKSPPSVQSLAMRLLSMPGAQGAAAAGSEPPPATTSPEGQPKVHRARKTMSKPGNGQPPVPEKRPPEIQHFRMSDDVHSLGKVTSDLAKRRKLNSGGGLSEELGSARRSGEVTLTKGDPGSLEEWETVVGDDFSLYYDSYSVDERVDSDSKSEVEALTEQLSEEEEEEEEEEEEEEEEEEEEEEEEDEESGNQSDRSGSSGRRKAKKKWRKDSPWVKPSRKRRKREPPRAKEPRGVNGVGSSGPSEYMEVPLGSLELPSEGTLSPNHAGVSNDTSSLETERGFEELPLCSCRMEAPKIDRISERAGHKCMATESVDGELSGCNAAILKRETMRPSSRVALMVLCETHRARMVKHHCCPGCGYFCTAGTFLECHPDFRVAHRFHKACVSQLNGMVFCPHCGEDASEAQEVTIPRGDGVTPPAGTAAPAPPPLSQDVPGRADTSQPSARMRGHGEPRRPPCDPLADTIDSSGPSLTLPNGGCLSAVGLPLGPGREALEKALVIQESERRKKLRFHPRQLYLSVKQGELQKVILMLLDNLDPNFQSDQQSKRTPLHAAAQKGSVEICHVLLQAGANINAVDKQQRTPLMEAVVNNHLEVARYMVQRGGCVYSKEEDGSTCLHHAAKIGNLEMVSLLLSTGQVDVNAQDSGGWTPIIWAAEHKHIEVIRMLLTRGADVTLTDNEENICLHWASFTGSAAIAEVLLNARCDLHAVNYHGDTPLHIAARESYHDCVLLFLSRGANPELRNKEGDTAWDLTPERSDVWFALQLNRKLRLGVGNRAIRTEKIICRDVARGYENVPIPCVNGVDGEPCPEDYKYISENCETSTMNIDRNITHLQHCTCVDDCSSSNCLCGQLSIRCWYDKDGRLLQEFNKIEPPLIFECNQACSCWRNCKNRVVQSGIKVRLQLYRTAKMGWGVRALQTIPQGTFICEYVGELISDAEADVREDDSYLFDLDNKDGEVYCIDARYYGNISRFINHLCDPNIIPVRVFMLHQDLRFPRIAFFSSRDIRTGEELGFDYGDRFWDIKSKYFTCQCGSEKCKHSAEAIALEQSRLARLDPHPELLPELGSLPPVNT
Assay: qHTS Assay for Inhibitors of Histone Lysine Methyltransferase G9a; note: nearly all actives have a fitted effect of over 75% in size
Settings: G9a H3K9 monomethylation, AlphaScreen, 2 h; activity, negative = inhibition: at 59 µM (top of the series) unless noted
Method in brief: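 Readings reflect AlphaScreen signal from monomethyl-H3K9 antibody detection. HMT at 20 nM; substrate b-H3K9 500 nM; cofactor SAM 20 uM; 2 h RT reaction; compounds tested as titrations in qHTS with 15 min preincubation.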
% is set by controls: 0 for no effect and ±100 for the full control effect; potency is the fitted concentration of half-maximal effect; tags give direction and shape of the fitted curve.

SMILES	activity, negative = inhibition	Potency
N#Cc1ccc(S(=O)(=O)N2CCC(C(=O)Nc3cccc(C(=O)NC4CC4)c3)CC2)cc1	inactive: 10.1% [at 2.33 µM]	–
CCCCNC(=O)c1onc(CSc2ccc(OC)cc2)c1C(=O)O	–	inconclusive: 39.8 µM [inhibitor, single point]
O=C(C1CCN(S(=O)(=O)c2cccc3cccnc23)CC1)N1CC=C(c2ccccc2)CC1	–	inconclusive: 89.1 µM [inhibitor, single point]
CC1(C(=O)NNC(=O)C2CCCCC2)CC1(Cl)Cl (stereo not given)	–	inconclusive: 70.8 µM [inhibitor, single point]
O=C(CSc1ncn[nH]1)c1ccco1	–	active: 5.62 µM
O=C1/C(=C/c2ccccc2Cl)SC(=S)N1CCCC(=O)N(CCO)c1ccccc1	–	active: 20 µM
CCN(CC)C(=O)Cn1cc(S(=O)(=O)CC(=O)NC2CCCCC2)c2ccccc21	–	inactive
O=C(O)c1cc(=O)c2c3nc4ccccc4oc-3cc(=O)c2[nH]1	–	inconclusive: 3.16 µM [inhibitor, partial curve, poor fit]
COc1ccc2oc(-c3ccc(NC(=O)c4ccc(Cl)cc4Cl)cc3)nc2c1	–	inactive
CN(C)C=Nc1nonc1-c1ncn[nH]1	–	active: 22.4 µM
Cc1ccccc1N1CC(c2nc3ccccc3n2Cc2ccc(Br)cc2)CC1=O (stereo not given)	–	inconclusive: 28.2 µM [inhibitor, single point]
CCOC(=O)CSc1nc2sc3c(c2c(=O)n1-c1ccc(OC)cc1)CC(C(C)C)OC3 (stereo not given)	–	inactive
Cc1ccc(O)c(C2=NCCNC(C(F)(F)F)=C2)c1	–	inconclusive: 56.2 µM [inhibitor, partial curve, poor fit]
COC(=O)c1c(-c2cccs2)csc1NC(=O)c1ccc(C)cc1	–	inconclusive: 3.16 µM [inhibitor, full curve, poor fit]
COc1ccc(OC)c(C(=O)CN2C(=O)N(c3ccc(C)cc3)S(=O)(=O)c3ccccc32)c1	–	inactive
CCN(CC)c1ccc(/C=N/NC(=O)Cc2cccs2)cc1	–	inconclusive: 20 µM [inhibitor, single point]
COc1ccccc1NCC(=O)N/N=C/C=C/c1ccccc1	–	active: 28.2 µM
CN(CC(=O)Nc1ccc(F)cc1)C(=O)CN1C(=O)NC2(CCCc3ccccc32)C1=O (stereo not given)	–	inconclusive: 70.8 µM [inhibitor, single point]
CCOc1ccc(CC2c3cc(OCC)c(OCC)cc3CCN2C(=O)CN2CCN(C)CC2)cc1OCC (stereo not given)	–	inconclusive: 39.8 µM [inhibitor, single point]
COc1ccc(/C=C2/C(=N)N3C(=NC2=O)Sc2cc(S(C)(=O)=O)ccc23)cc1OC	–	inconclusive: 25.1 µM [inhibitor, full curve, poor fit]
CC1CC(C)CN(CCCNC(=O)CN2C(=O)COc3ccc(S(=O)(=O)N4CCOCC4)cc32)C1 (stereo not given)	–	inactive
Cc1nnc(SCC(=O)Nc2ccc(N(C)C)cc2)[nH]c1=O	–	inconclusive: 12.6 µM [inhibitor, partial curve]
C=CCNC(=S)NNC(=O)C(CC(C)C)CC(C)O (stereo not given)	inconclusive: -63.9% [inhibitor]	–
O=C(c1ccc2c(c1)OCO2)N(CC1CCCO1)C1(C(=O)NC2CCCC2)CCCCC1 (stereo not given)	–	inconclusive: 70.8 µM [inhibitor, single point]

SMILES	activity, negative = inhibition	Potency
CCN(CC)CCn1c2c(c(SCC(=O)Nc3ccc4c(c3)OCO4)nc1=O)CCC2	–	active: 35.5 µM
Nc1c(N2CCCCC2)c2ccccc2oc1=O	–	inconclusive: 39.8 µM [inhibitor, partial curve]
CN(C)C(=O)c1ccc(-c2cncnc2Nc2ccc(F)cc2)cc1	inactive: -5.22% [at 0.501 µM]	–
Cc1[nH]nc2oc(=O)c(CCO)c(C)c12	–	inconclusive: 89.1 µM [inhibitor, single point]
COc1cccc(NC(=O)C(=O)NCC(c2ccco2)N2CCc3ccccc3C2)c1 (stereo not given)	–	inconclusive: 89.1 µM [inhibitor, single point]
N#CC(=Cc1ccc(O)cc1)C(N)=C(C#N)C#N	–	inactive
CCOC(=O)c1ccc(-c2ccc(/C=N/NC(=O)CN(c3ccccc3Cl)S(C)(=O)=O)o2)cc1	–	inactive
COC(=O)c1cc(CSc2ncnc3sccc23)oc1C	–	inconclusive: 89.1 µM [inhibitor, single point]
NNC(=O)c1sc(-c2ccccc2)cc1N	–	inconclusive: 89.1 µM [inhibitor, single point]
CN(C)c1ccc(NC(=O)c2cccc(N3C(=O)CCC3=O)c2)cc1	–	active: 39.8 µM
COCc1cc(C)nc(N/N=C/c2ccc(-c3ccc(Cl)cc3[N+](=O)[O-])o2)c1C#N	–	active: 39.8 µM
COc1cc(/C=C2\N=C(c3ccccc3)NNC2=O)cc(OC)c1OC	–	active: 25.1 µM
CC(C(=O)O)N1C(=O)C2C3CC(C2C1=O)C1C(c2ccccc2)c2sc(=O)[nH]c2SC31 (stereo not given)	–	inactive
O=C(OCC(=O)N1CCN(C(=O)c2ccco2)CC1)c1ccc(Cl)c(Cl)c1	inactive: 16.1% [at 12.7 µM]	–
COc1ccc(N2CCN(S(=O)(=O)c3ccc4c(c3)OCCO4)CC2)cc1	–	inconclusive: 31.6 µM [inhibitor, full curve]
COc1cc(C(=O)OCCc2cc3ccccc3c(=O)o2)cc(OC)c1OC	inactive: 13.1% [at 0.501 µM]	–
CCc1ccc(-n2c(=S)sc3c(=O)n(-c4ccccc4OC)c(=S)[nH]c32)cc1	–	inconclusive: 39.8 µM [inhibitor, single point]
Cc1ccc(CNC(=O)CCCN2C(=O)CCn3nc(-c4cccn4C)cc32)cc1	–	inactive
O=C(NC(Cc1c[nH]c2ccccc12)C(=O)Nc1ccc(F)c([N+](=O)[O-])c1)c1cccs1 (stereo not given)	–	inconclusive: 35.5 µM [inhibitor, full curve, poor fit]
S=C(NCc1ccco1)N1CCN(c2cccc(Cl)c2)CC1	–	inconclusive: 79.4 µM [inhibitor, single point]
CCCOc1ccc(CNC(=O)C2CCN(C(=O)c3sccc3-n3cccc3)CC2)cc1	–	inconclusive: 25.1 µM [inhibitor, partial curve, poor fit]
CC(=O)Nc1ccc(C(=O)Nc2nc(-c3ccccn3)cs2)cc1	–	inconclusive: 39.8 µM [inhibitor, partial curve, poor fit]
COc1cc2c(cc1NC(=O)C(C)OC(=O)C1CC(=O)N(Cc3ccco3)C1)oc1ccccc12 (stereo not given)	–	inconclusive: 89.1 µM [inhibitor, single point]
O=C1N=C(N2CCOCC2)S/C1=C/c1ccc(-c2ccccc2Cl)o1	–	inactive

SMILES	activity, negative = inhibition	Potency
O=C(/C=C/c1cccc([N+](=O)[O-])c1)N1CCN(Cc2ccc3c(c2)OCO3)CC1	–	inconclusive: 35.5 µM [inhibitor, single point]
Nc1c(C(=O)C2CC2)sc2nc(-c3ccccc3)cc(C(F)(F)F)c12	–	inconclusive: 39.8 µM [inhibitor, single point]
COc1ccc(N(CC(=O)NC2CCCCC2)C(=O)CCCC(=O)Nc2ccccn2)cc1	–	inactive
CCN1C(=Nc2ccc(Cl)cc2)SC/C1=C\C(=O)OC	–	inconclusive: 70.8 µM [inhibitor, single point]
Cc1cccc(C(=O)Nc2ccc(N3CCC(N4CCCCC4)CC3)c(C(=O)O)c2)c1	–	inactive
Cn1c2ccccc2c2cc(C(=O)N3CCOCC3)sc21	–	inconclusive: 89.1 µM [inhibitor, single point]
O=[N+]([O-])c1ccc(O)c(/C=N\N=C2c3ccccc3-c3ccccc32)c1	–	inconclusive: 10 µM [inhibitor, single point]
COc1ccc(CN2CCCC(C(=O)c3ccc(Cl)cc3)C2)cc1Cn1cccn1 (stereo not given)	–	inconclusive: 39.8 µM [inhibitor, partial curve, poor fit]
COc1cccc(NC(=O)N(Cc2cn(C)c3ccccc23)C2CCCCCC2)c1	–	inconclusive: 22.4 µM [inhibitor, partial curve, poor fit]
Cc1ccc2c(c1)C1CN(C)CCC1N2C(=S)Nc1ccc(OC(F)F)cc1 (stereo not given)	–	inconclusive: 50.1 µM [inhibitor, partial curve]
CC(=O)Nc1nc(CC(=O)c2ccccc2)cs1	–	inconclusive: 50.1 µM [inhibitor, partial curve]
COc1cccc([C@@H]2Oc3ccc(OC)cc3C(=O)[C@H]2O)c1	–	active: 79.4 µM
FC(F)(F)c1ccc(-n2cnc3ccccc32)nc1	–	inactive
COC(=O)c1[nH]c2ccc(F)cc2c1NC(=O)C1=COCCO1	inconclusive: -61.9% [inhibitor]	–
Cc1ccc(-c2nnc(SCC#CCOC(=O)c3cccs3)o2)cc1	–	inconclusive: 3.16 µM [inhibitor, single point]
O=C(Nc1cc(S(=O)(=O)N2CCCCC2)ccc1N1CCCCC1)C1CC1	–	inactive
Cc1cccc(Nc2ccccc2C(=O)OCC(=O)NCc2ccco2)c1C	inactive: -11.6% [at 0.0925 µM]	–
COc1ccc(/C=C/C(=O)c2ccncc2)c2ccccc12	–	inconclusive: 28.2 µM [inhibitor, single point]
CC1=C(C(=O)NCc2ccc(Cl)cc2)C2(CCC(C)CC2)OC1=O (stereo not given)	–	inactive
C=CCOc1ccccc1CN1CCC(n2nccc2NC(=O)c2ccccc2)CC1	–	inactive
CCc1c(C(=O)NCc2cnn(C)c2)csc1C	–	inconclusive: 31.6 µM [inhibitor, single point]
COc1ccccc1C(=O)COC(=O)Cn1nc(C)c([N+](=O)[O-])c1C	inconclusive: -80.3% [inhibitor] [at 2.33 µM]	–
